# Where “and” joins values, the source holds several entries; their conditions need not be identical. Identical values can stand only once. The shares of active, inactive and inconclusive entries below differ from those in the screen. For some assays here: A potency beside an inconclusive call is a rough fit, not a confirmed value. Calls of active or inactive are those of the source. Calls follow the shape of the dose curve; as a rule, active = well fitted curve in the direction sought with a large enough effect; inconclusive = small, poorly fitted or top-dose-only effect, or another doubt; inactive = no such curve, though single readings can be large; an effect the other way counts as inactive or inconclusive.
# Experiments:
# [1] = Viability qHTS for spleen associated tyrosine kinase inhibitor (SYKi) naive MV4-11 cells (AID 1963823); conditions: MV4-11 AML viability, CellTiter-Glo luminescence, 72 h; series mostly up to 45 µM; also: nearly all actives have a fitted effect of over 40% in size
# In short: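 Seeding of 500 SYKi-naive MV4-11 cells per well onto pre-dispensed compounds preceded a 72 hr incubation at 37 C. Luminescent CellTiter-Glo signal, read after 10 min at room temperature, reflected viable cells.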
# [2] = Quantitative highthroughput screen to assess conditional lethalithy of NOMO1 cells grown in RPMI1640 with untreated serum (RPMI+s) (AID 1963876); conditions: NOMO1 AML cells in RPMI+serum, CellTiter-Glo viability, 48 h; viability: at 45.8 µM (top of the series); also: nearly all actives have a fitted effect of over 35% in size
# In short: (§1)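 Each medium arm—HPLM with 10% dialyzed FBS, or RPMI1640 with 5 mM glucose and 10% untreated or dialyzed FBS—was screened against an 11-point, 3-fold compound titration for 48 h at 37 °C, with CellTiter-Glo luminescence as endpoint.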
# [3] = Quantitative highthroughput screen to assess conditional lethalithy of NOMO1 cells grown in Human Plasma-Like Medium with dialyzed fetal bovine serum (HPLM+ds) (AID 1963878); conditions: NOMO1 AML cells in HPLM+ds, CellTiter-Glo viability, 48 h; viability: at 45.8 µM (top of the series); also: nearly all actives have a fitted effect of over 35% in size
# In short: as §1
# [4] = Quantitative highthroughput screen to assess conditional lethalithy of SEM cells grown in Human Plasma-Like Medium with dialyzed fetal bovine serum (HPLM+ds) (AID 1963882); also: nearly all actives have a fitted effect of over 35% in size
# In short: as §1
# [5] = Quantitative highthroughput screen to assess conditional lethalithy of SEM cells grown in RPMI1640 with unreated serum (RPMI+s) (AID 1963883); conditions: SEM B-ALL cells, CellTiter-Glo viability, 48 h; viability: at 45.8 µM (top of the series); also: nearly all actives have a fitted effect of over 35% in size
# In short: as §1
# [6] = Quantitative highthroughput screen to assess conditional lethalithy of SEM cells grown in RPMI1640 with dialyzed fetal bovine serum (RPMI+ds) (AID 1963884); conditions: SEM B-ALL cells, RPMI+dialyzed FBS, CellTiter-Glo viability, 48 h; viability: at 45.8 µM (top of the series); also: nearly all actives have a fitted effect of over 35% in size
# In short: as §1
# [7] = Cellular viability qHTS for adrenocortical cancer (ACC) cell line NCI-H295R (AID 1963990); conditions: CellTiter-Glo ATP luminescence, 48 h; series mostly up to 46.1 µM; also: nearly all actives have a fitted effect of over 60% in size
# In short: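 Readout: CellTiter-Glo luminescence, 20 min RT. Exposure: 48 h, 37C/5% CO2. Cells: NCI-H295R, ITS-DMEM serum-free. Range: up to 46 uM. Analysis: 4PL fit, IC50 plus efficacy.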
# [8] = Quantitative highthroughput screen to assess conditional lethalithy of P12 Ichikawa cells grown in Human Plasma-Like Medium with dialyzed fetal bovine serum (HPLM+ds) (AID 1963879); conditions: Potency: viability; also: nearly all actives have a fitted effect of over 35% in size
# In short: as §1
# [9] = Quantitative highthroughput screen to assess conditional lethalithy of P12 Ichikawa cells grown in RPMI1640 with dialyzed fetal bovine serum (RPMI+ds) (AID 1963880); conditions: Potency: P12-Ichikawa viability; also: nearly all actives have a fitted effect of over 35% in size
# In short: as §1
# [10] = Quantitative highthroughput screen to assess conditional lethalithy of P12 Ichikawa cells grown in RPMI1640 with untreated serum (RPMI+s) (AID 1963881); conditions: Potency: viability; also: nearly all actives have a fitted effect of over 35% in size
# In short: as §1
# [11] = Cellular viability qHTS for adrenocortical cancer (ACC) cell line SW-13 (AID 1963989); conditions: SW-13 ACC cells viability, CellTiter-Glo, 48 h; activity (max response): stronger effect = lower value; also: nearly all actives have a fitted effect of over 65% in size
# In short: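 Compound titrations (up to 46 uM final, in DMSO) were applied to SW-13 cells for 48 h at 37C/5% CO2. Reading used CellTiter-Glo after 20 min at room temperature; fitted curves yielded IC50 and efficacy.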
# Potency is read from the fitted curve at half-maximal effect; tags tell the direction and shape of the fitted curve.
Structure (SMILES),Potency [1],Potency [2],Potency [3],Potency [4],Potency [5],Potency [6],Potency [7],Potency [8],Potency [9],Potency [10],Potency [11]
N=c1nc(N2CCCCC2)cc(N)n1O,inactive,inactive,inactive,"inconclusive: 1.32 µM [cytotoxic, partial curve, poor fit]","inconclusive: 1.48 µM [cytotoxic, partial curve, poor fit]","inconclusive: 0.662 µM [cytotoxic, full curve, poor fit]",inactive,–,–,–,–
CC(C)c1cc(-c2n[nH]c(=O)n2-c2ccc3c(ccn3C)c2)c(O)cc1O,active: 9.2 nM and active: 9.3 nM,active: 0.118 µM,–,active: 0.0743 µM,–,"inconclusive: 0.0743 µM [cytotoxic, full curve]",–,"inconclusive: 0.166 µM [cytotoxic, full curve]","inconclusive: 0.105 µM [cytotoxic, full curve]","inconclusive: 0.105 µM [cytotoxic, full curve]",–
C[C@@H](N)c1ccc(C(=O)Nc2ccnc3[nH]ccc23)cc1,active: 4.17 µM,"inconclusive: 20.9 µM [cytotoxic, partial curve]","inconclusive: 29.6 µM [cytotoxic, single point]","inconclusive: 23.5 µM [cytotoxic, partial curve]","inconclusive: 14.8 µM [cytotoxic, partial curve]",–,"inconclusive: 31.6 µM [cytotoxic, single point]","inconclusive: 37.2 µM [cytotoxic, partial curve, poor fit]",–,"inconclusive: 23.5 µM [cytotoxic, single point]",active: 25.1 µM

# From PubChem BioAssay (NCATS)
